# Source: PubChem BioAssay AID485364 (National Center for Advancing Translational Sciences (NCATS), 2010)
# “And” between values parts separate entries of the source, which are not always exact repeats. Equal entries are not always repeated. In all, about 360,000 compounds went through this assay and about 11,000 (3.1%) were called active. The inconclusive results got no clear call from the source; some entries with a clear call stand among them for comparison. The call rests on the fitted dose curve; in most records, active means well fitted inhibition curve with a large enough effect; inconclusive means small, poorly fitted or top-dose-only effect; inactive means no such curve, though single readings can be large or run the other way. Potencies of inconclusive entries are left out as doubtful fits. The source holds several records for some structures; these can differ, active in one and inactive in another.
# Biological target: Schistosoma mansoni thioredoxin glutathione reductase (TGR) (UniProt Q962Y6)
# Test: qHTS Assay for the Inhibitors of Schistosoma Mansoni Peroxiredoxins; further: nearly all actives have a fitted effect of over 60% in size
# Conditions: purified TGR, DTNB reduction, TNB absorbance 405 nm; series mostly up to 114 µM
# Method in brief: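 TGR 20 nM + NADPH 100 uM (dispensed conc.), cpd preinc 15 min RT; start with NADPH (500 uM addition) then DTNB (15 mM addition). Kinetic TNB absorbance, 405 nm filter. Four-parameter Hill fit across titration.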
# Potency means the concentration at half of the fitted maximal effect; tags describe the fitted curve by direction and shape.
row,SMILES,Potency
1,COc1cccc(C(=O)NC(=S)Nc2ccc(N(C)C)cc2)c1,active: 15.8 µM
2,CC(C)CC(=O)NC(=S)Nc1ccc(N2CCOCC2)cc1,"inconclusive [inhibitor, partial curve]"
3,O=C1C2C(C(=O)N1/N=C/c1ccc([N+](=O)[O-])o1)C1C=CC2C12CC2 (configuration not stated),"inconclusive [inhibitor, partial curve]"
4,O=C(COC(=O)CCc1c[nH]c(=O)[nH]1)Nc1cccc(Cl)c1,"inconclusive [inhibitor, partial curve]"
5,C=CCN1C(=O)NC(=O)/C(=C/c2cnc(SC)nc2)C1=O,"inconclusive [inhibitor, full curve]"
6,N#CCCn1cc(C(=O)O)c(-c2ccc3ccccc3c2)n1,"inconclusive [inhibitor, single point]"
7,CCS(=O)(=O)c1ncc(Cl)c(C(=O)Nc2ccc(S(=O)(=O)N(C)c3ccccc3)cc2)n1,active: 1.12 µM and active: 501 nM
8,CC(C)CCN1C(=O)CC(NNC(=O)c2ccc(S(=O)(=O)N3CCCC3)cc2)C1=O (configuration not stated),"inconclusive [inhibitor, partial curve]"
9,COc1cccc(-c2cc(=O)c3cc(NC(=O)c4ccccc4)ccc3[nH]2)c1,inactive
10,C=Cc1ccc(CN2C(=O)N(c3ccc(C)c(C)c3)S(=O)(=O)c3ccccc32)cc1,inactive
11,O=C1c2ccccc2C(=O)N1CCC(c1ccc(F)cc1)c1ccco1 (configuration not stated),active: 39.8 µM
12,Cc1nc(C(=O)N2CCCC(C(=O)c3cccc(OC(C)C)c3)C2)cs1 (configuration not stated),"inconclusive [inhibitor, single point]"
13,COCCn1c(SC(C)C(=O)NC2CC2)nnc1-c1cccc(C)c1 (configuration not stated),"inconclusive [inhibitor, full curve, poor fit]"
14,COCC(C)n1c(COc2ccccc2F)nnc1SCC(=O)Nc1oc(C)c2c(C)n[nH]c(=O)c12 (configuration not stated),active: 25.1 µM
15,Cc1cc(NC(=O)CN2CCCCC2)n(-c2ccccc2)n1,inactive
16,CCCN(CCC)S(=O)(=O)c1nc2nc(C)cc(C)n2n1,"inconclusive [inhibitor, partial curve]"
17,Nn1c(Nc2ccccc2)nc2ccccc21,inactive
18,COC(=O)c1ccc(OC(=O)CCS(=O)(=O)c2ccc(C)cc2)cc1,"inconclusive [inhibitor, partial curve]"
19,Cc1ccc2oc(C(=O)N(C)Cc3ccc(C)o3)c(C)c2c1,active: 2.24 µM
20,COc1cccc(N/N=C/c2cccc(Br)c2O)c1,active: 35.5 µM
21,CN1CCN(Cc2cn(C)nc2-c2ccccc2F)CC1c1ccccc1 (configuration not stated),"inconclusive [inhibitor, full curve]"
22,O=C(O)CN1CCN(Cc2ccc(Cl)cc2)C1=O,inactive
23,COc1ccc(CN2CCNC(=O)C2CC(=O)N(C)Cc2ccon2)cc1OC (configuration not stated),"inconclusive [inhibitor, partial curve]"
24,C#CCOCCOCCOCCNc1nc(N2CCN(C(=O)CCCCCCCCCCNC(=O)[C@@H](CCC(=O)O)n3cc(CCCCCN)nn3)CC2)nc(N2CCN(C(=O)CCCCCCCCCCNC(=O)[C@@H](CCC(=O)O)n3cc(CCCCCN)nn3)CC2)n1,"inconclusive [inhibitor, partial curve]"

row,SMILES,Potency
1,CCn1c(SCC#N)nc2ccccc2c1=O,inactive
2,CCOc1cccc2c1OC1(CCCCC1)N1N=C(c3cccnc3)CC21 (configuration not stated),"inconclusive [inhibitor, partial curve]"
3,Oc1ccc2ccccc2c1/C=N/c1nccs1,"inconclusive [inhibitor, partial curve]"
4,COc1cc(C(=O)Nc2nc(OC)c(-c3ccccc3)c(OC)n2)cc(OC)c1OC,inactive
5,C=CCN(c1ccccc1)S(=O)(=O)c1cccc(C(=O)Nc2ccc(N3CCOCC3)cc2)c1,inactive
6,O=C(c1ccc(S(=O)(=O)Cc2ccccc2F)c([N+](=O)[O-])c1)N1CCCCCC1,"inconclusive [inhibitor, partial curve]"
7,COc1ccc(OC)c(-n2cc3c(=O)n(C)c(=O)n(C)c3c2)c1,"inconclusive [inhibitor, partial curve]"
8,CC(NC(=O)c1cc(S(=O)(=O)N2CCOCC2)ccc1F)c1ccc(-n2ccnc2)cc1 (configuration not stated),inactive
9,COC(=O)C1=C(C)N(CCc2ccc(OC)c(OC)c2)C(=O)/C1=C\c1ccc(O)cc1,active: 28.2 µM
10,CCOc1ccc(C(=O)COC(C)=O)cc1,"inconclusive [inhibitor, partial curve]"
11,CCOC(=O)c1ccc(NC(=O)CSc2nnc(CCc3ccc(C)o3)n2-c2ccccc2)cc1,"inconclusive [inhibitor, partial curve, poor fit]"
12,COc1ccc(C2CC(c3ccc(F)cc3)=NN2c2ccccc2)cc1OC (configuration not stated),"inconclusive [inhibitor, single point]"
13,Cc1ccc(NC(=O)c2cc(N(C)C)ccc2[P+](=O)O)cc1,inactive
14,CC(C)(C)NC(=O)c1cc(C(C)(C)C)c(O)c(C(C)(C)C)c1,inactive
15,c1ccc(C2c3[nH]c4ccccc4c3CCN2Cc2cccn2-c2cccnc2)nc1 (configuration not stated),active: 15.8 µM
16,CC(=O)Nc1ccc2c(c1)N(S(=O)(=O)c1cccs1)CCC2,inactive
17,COc1cccc(C2C(C(=O)c3ccc(C)o3)=C(O)C(=O)N2c2cc(C)on2)c1 (configuration not stated),"inconclusive [inhibitor, partial curve]"
18,COc1ccc(Cn2c(SCC(=O)N3CCN(c4ccc(F)cc4)CC3)nc3ccccc32)cc1,inactive
19,O=C(O)/C=C/c1ccc(S(=O)(=O)Nc2ccccc2C(=O)Nc2ccc(F)cc2)cc1,active: 44.7 µM
20,C[C@@H](CN1C2=NC[C@H](Cc3ccccc3)N2C[C@H]1Cc1ccc(O)cc1)NC(=O)CCC1CCCCC1,"inconclusive [inhibitor, full curve]"
21,CCCc1nc2c(C)ccc(C)c2c(N)c1CC,inactive
22,COCc1cc(C2SCC(=O)Nc3c2c(=O)[nH]n3C(C)C)ccc1OC (configuration not stated),"inconclusive [inhibitor, partial curve, poor fit]"
23,Cn1cnc([N+](=O)[O-])c1Sc1ccc(Br)cc1,active: 22.4 µM
24,Cc1ccc2c(=O)c(C(=O)c3ccccc3)cn(CC(=O)NCc3ccccc3)c2n1,inactive

row,SMILES,Potency
1,O=C(CC1C(=O)NCCN1Cc1ccccc1C(F)(F)F)NC1CCCC1 (configuration not stated),active: 39.8 µM
2,Cc1c(/C(O)=C2/C(=O)C(=O)N(CCN3CCOCC3)C2c2cccnc2)cnn1-c1ccccc1 (configuration not stated),"inconclusive [inhibitor, partial curve]"
3,NC(=O)C1=C[C@H](c2ccc(C(F)(F)F)cc2)C[C@H](OCCCCO)O1,"inconclusive [inhibitor, partial curve]"
4,O=C(CC(C(=O)O)c1ccc(Cl)cc1)c1ccc(Br)cc1 (configuration not stated),inactive
5,CCOc1ccc(/C=C2/C(=O)NC(=O)N(CCc3ccc(F)cc3)C2=O)cc1,"inconclusive [inhibitor, partial curve, poor fit]"
6,O=C(CSc1nc2ccc(NC(=O)CSc3nnnn3Cc3ccccc3)cc2s1)Nc1ccccc1,inactive
7,CC(C)CC(NC(=O)COc1ccccc1)C(=O)O (configuration not stated),inactive
8,COc1ccc(NC(=O)n2nc(OC(=O)c3cccs3)cc2N)cc1,"inconclusive [inhibitor, partial curve]"
9,Cc1ccccc1CNC(=O)Cn1nc(C)c2nn(-c3ccc(Cl)cc3)c(C)c2c1=O,inactive
10,CCOc1ccc(OCCC(=O)OCC(=O)N2CCN(S(=O)(=O)c3ccc(Cl)cc3)CC2)cc1,"inconclusive [inhibitor, partial curve]"
11,Cc1ccc(CN2C(=O)N/C(=C/c3ccc(-c4ccc(C(=O)O)cc4)o3)C2=O)cc1,"inconclusive [inhibitor, partial curve]"
12,COc1cc(CN2CCCC(CCC(=O)NCc3ccc(C)o3)C2)cc2c1OCO2 (configuration not stated),"inconclusive [inhibitor, partial curve]"
13,CCCC(C)NC(=O)c1ccc(C2SCC(=O)N2Cc2ccco2)cc1 (configuration not stated),"inconclusive [inhibitor, partial curve, poor fit]"
14,Cc1cccc(NC(=O)CCn2cnnn2)c1,active: 89.1 µM
15,CCOC(=O)CNS(=O)(=O)c1c(C)noc1C,active: 25.1 µM
16,O=C(CCNc1ccc(F)cc1)c1cccc([N+](=O)[O-])c1,active: 0.501 µM
17,O=C(c1ccco1)N1N=C(c2ccccc2)CC1c1ccc2nccnc2c1 (configuration not stated),"inconclusive [inhibitor, partial curve]"
18,COc1ccc(O)c(CNc2ccccc2F)c1,"inconclusive [inhibitor, single point]"
19,Cc1noc(C)c1S(=O)(=O)N1CCC(C(=O)N2CCN(C3CCCC3)CC2)CC1,active: 31.6 µM
20,CCc1ccc(NC(=O)Cn2c(=O)c3cccn3c3ccccc32)cc1,"inconclusive [inhibitor, single point]"
21,O=C(CN1C(=O)CSc2ccc(S(=O)(=O)N3CCCCC3)cc21)NCc1ccccc1,inactive
22,O=C(Nc1cc(Sc2ccccn2)cc([N+](=O)[O-])c1)c1cccc(F)c1,inactive
23,Cc1cccc(-n2nc3c(c2NC(=O)c2ccco2)CS(=O)(=O)C3)c1C,"inconclusive [inhibitor, partial curve]"
24,Cc1ccc(CNC(=O)CCCN2C(=S)NC(C)(C)CC2C)cc1 (configuration not stated),"inconclusive [inhibitor, single point]"
